Source: article PMC4336329 (PLoS ONE, 2015)
In all, about 310,000 compounds went through this assay and about 14,000 (4.5%) showed an effect of 50% or more. Effects have a minus sign here. The list shows a part of the results.

Target: human ether-à-go-go-related gene (hERG) potassium channel (human, UniProt Q12809)
Assay: primary screen, population patch clamp on CHO cells stably expressing hERG
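Note: peak tail current of the secondary pulse compared with the same well before compound.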

human ether-à-go-go-related gene (hERG) potassium channel, sequence (Q12809 whole entry, looked up): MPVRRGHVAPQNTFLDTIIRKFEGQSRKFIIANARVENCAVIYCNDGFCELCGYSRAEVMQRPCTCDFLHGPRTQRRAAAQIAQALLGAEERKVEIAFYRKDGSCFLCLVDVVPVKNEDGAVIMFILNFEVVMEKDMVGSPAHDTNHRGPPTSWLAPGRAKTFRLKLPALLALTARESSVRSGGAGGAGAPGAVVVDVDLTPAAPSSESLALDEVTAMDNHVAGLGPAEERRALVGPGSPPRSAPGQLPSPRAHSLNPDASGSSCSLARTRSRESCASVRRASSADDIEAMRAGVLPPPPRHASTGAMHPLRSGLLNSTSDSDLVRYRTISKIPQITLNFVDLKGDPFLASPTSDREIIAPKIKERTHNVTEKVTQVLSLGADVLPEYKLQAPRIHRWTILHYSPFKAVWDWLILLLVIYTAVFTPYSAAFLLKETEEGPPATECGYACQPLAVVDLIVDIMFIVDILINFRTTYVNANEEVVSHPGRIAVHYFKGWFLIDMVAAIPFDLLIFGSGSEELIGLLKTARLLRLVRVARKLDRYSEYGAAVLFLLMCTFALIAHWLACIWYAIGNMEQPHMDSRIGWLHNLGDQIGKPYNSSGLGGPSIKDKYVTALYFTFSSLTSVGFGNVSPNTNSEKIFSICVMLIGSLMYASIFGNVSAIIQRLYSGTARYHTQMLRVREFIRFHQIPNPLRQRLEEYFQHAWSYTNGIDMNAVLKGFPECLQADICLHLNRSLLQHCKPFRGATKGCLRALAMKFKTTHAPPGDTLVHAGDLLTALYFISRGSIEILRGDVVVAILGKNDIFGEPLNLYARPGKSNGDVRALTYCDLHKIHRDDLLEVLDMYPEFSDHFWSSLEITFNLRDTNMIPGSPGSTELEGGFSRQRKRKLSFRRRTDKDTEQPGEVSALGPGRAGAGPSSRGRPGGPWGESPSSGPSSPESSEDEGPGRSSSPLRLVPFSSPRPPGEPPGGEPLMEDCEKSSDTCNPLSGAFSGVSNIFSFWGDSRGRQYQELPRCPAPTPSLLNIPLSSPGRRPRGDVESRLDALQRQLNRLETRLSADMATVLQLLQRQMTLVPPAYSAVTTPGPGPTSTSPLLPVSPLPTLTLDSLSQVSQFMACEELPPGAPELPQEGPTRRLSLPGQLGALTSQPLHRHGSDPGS

| SMILES | hERG current change (%, negative = inhibition) at 10uM [%] |
| --- | --- |
| CC1N(C)c2cc(NC(=O)c3cccs3)c(P(=O)(Nc3ccc([N+](=O)[O-])cc3)N3CCOCC3)cc2C1(C)C (stereo not drawn) | 12.2 |
| C=CCSc1nnc(CNC(=O)c2ccccc2C)n1C(C)C | 5.68 |
| C=CCN(C(=O)Nc1ccc2oc(C)nc2c1)c1ccccc1 | -10 |
| COc1ccc(NC(=O)c2sc(N3CCOCC3)nc2-c2ccccc2)c(OC)c1 | -44.3 |
| O=C(CCN1C(=O)c2ccccc2C1=O)NCCC1=CCCCC1 | -8.94 |
| CC(CC(=O)O)C(=O)c1ccc(Cl)c([N+](=O)[O-])c1 (stereo not drawn) | 26.2 |
| Cc1ccc2nc(/C(C#N)=C/c3ccc(-c4ccccc4C(=O)O)o3)[nH]c2c1 | 19.8 |
| O=C(NC1=NCCS1)c1ccc(Cl)c(S(=O)(=O)N2CCCCC2)c1 | -2.52 |
| Cc1ccc(S(=O)(=O)N2CCCN(C(=O)CNC(=O)c3cccc(C)c3)CC2)cc1 | -54.3 |
| O=C(COC(=O)c1ccc(NS(=O)(=O)c2cccs2)cc1O)Nc1ccc(F)cc1 | 8.05 |
| COc1ccc(NC(=S)NNC(=O)Cn2nc(C(F)F)cc2C(F)F)cc1 | 13.4 |
| COC(=O)CCC(=O)Nc1ccc(S(=O)(=O)Nc2cc(OC)nc(OC)n2)cc1 | 8.49 |
| CC(C)(C)OC(=O)N/N=C/c1cc(N=Nc2ccccc2)ccc1O | 15.1 |
| CC(CCc1ccccc1)NCCC#N.Cl (stereo not drawn) | 16.5 |
| O=C(/C=C/c1ccco1)Nc1ccccn1 | 5.98 |
| CC(=O)N=C1SC2CS(=O)(=O)CC2N1Cc1ccc(C)cc1 (stereo not drawn) | 1.2 |
| Cc1c(CC(=O)O)c(=O)oc2cc3occ(-c4ccccc4)c3cc12 | -1.59 |
| CC(C)N1CCN(CCCc2ccccc2)CC1CCO (stereo not drawn) | -4.39 |
| CN(Cc1cc2cc(F)ccc2[nH]1)Cc1nc(-c2cnccn2)no1 | -7.5 |
| COc1ccc(C(=O)Nc2ccc3c(c2)C(=O)NC3=O)cc1 | 1.7 |
| CC(C)CC(C)c1cc(N)nc2nc3ccccc3n12 (stereo not drawn) | -48.3 |
| O=C(CC1(O)C(=O)Nc2ccccc21)c1ccc(-n2cnnn2)cc1 (stereo not drawn) | 20.5 |
| CCc1sc(C(=O)Nc2cc(Cl)ccc2N2CCCCC2)cc1C | -2.72 |

| SMILES | hERG current change (%, negative = inhibition) at 10uM [%] |
| --- | --- |
| COCCn1c(SCC(=O)Nc2sccc2C(N)=O)nnc1-c1ccncc1 | 5.7 |
| Cc1cccc(Nc2ccccc2C(=O)OCC(=O)N2CCOCC2)c1C | 4.33 |
| Oc1ccc(/C=N/N2CCN(C3c4ccccc4-c4ccccc43)CC2)cc1O | 9.43 |
| Cc1ccc(S(=O)(=O)CCc2nnc(NC(=O)CCl)s2)cc1C | -27.2 |
| CC(C)=C(NC(=O)c1ccccc1)C(=O)NCc1ccccc1 | 9.27 |
| O=C1CCCCC1Oc1ccc2ccc(=O)oc2c1 (stereo not drawn) | 19.6 |
| COc1ccc(OC)c2[nH]c(=O)c(CCNC(=O)c3ccc(S(=O)(=O)N4CCCC4)cc3)cc12 | -17.3 |
| Cc1nc2ncnn2c(C)c1Cc1ccc(Cl)cc1 | -8.29 |
| O=c1[nH]c(=S)n(C2CC2)c(O)c1/C=N/N1CCOCC1 | 1.22 |
| Cc1cc(OCCOCCNC(C)C)cc(C)c1Cl.O=C(O)C(=O)O | -47.3 |
| O=C1C2CCCN2C(c2cccs2)N1c1ccc(Cl)cc1 (stereo not drawn) | 3.41 |
| COc1ccc2c(c1OC)C(=O)OC2CC(=O)O (stereo not drawn) | 15.8 |
| Cc1nnc(NC(=O)CSc2cn(Cc3ccccc3)c3ccccc23)s1 | -10.9 |
| CCOC(=O)c1c(-c2ccccc2)csc1NC(=O)c1cc(S(=O)(=O)N2CCOCC2)ccc1C | 2.23 |
| CCCNC(=O)COC(=O)c1ccccc1OCC(=O)Nc1ccc(Br)cc1 | 15.2 |
| O=C1/C(=C\c2ccc(Br)o2)Cc2ccccc21 | 2.56 |
| CCCCN(C)C(=O)c1nc2ccccn2c1CN1CCN(c2ccccn2)CC1 | -7.16 |
| CC(=O)c1ccc(S(=O)(=O)N2CCN(CC#N)CC2)cc1 | -2.7 |
| Cn1ccnc1SCC(=O)n1c2c(c3ccccc31)CCCC2 | -4.61 |
| Cc1ccc(C(=O)CSc2nnc(Cn3nnc4ccccc43)n2C)cc1 | -6.97 |
| COc1ccc(-n2cc(-c3ccccc3)c3c(=S)nc[nH]c32)cc1 | 8.07 |
| O=C1CC(NS(=O)(=O)c2ccc([N+](=O)[O-])cc2)CN1c1cccc(F)c1 (stereo not drawn) | -39.4 |
| Cc1nn(C)c(C)c1N1C(=O)c2cccc3c(N)ccc(c23)C1=O | 0.353 |

| SMILES | hERG current change (%, negative = inhibition) at 10uM [%] |
| --- | --- |
| O=C(N/N=C/c1cc(Br)cs1)c1c[nH]c2ccccc12 | 5.35 |
| CC1(C)CC(=O)C/C(=N\NC(=O)C2CC2c2ccccc2)C1.I (stereo not drawn) | 30.2 |
| Cc1ccc(NC(=O)N2CCCCCC2)cc1C | 10.9 |
| Cc1ccc(C)c(N2N=C(C(=O)Nc3ccccc3N3CCCC3)CCC2=O)c1 | 3.97 |
| COc1ccc(CCNC(=O)[C@H](CC(C)C)NC(=O)N2CCn3c2nc2ccccc23)cc1OC | 4.33 |
| CC(C)Cc1ccc(C(C)C(=O)Nc2ncccn2)cc1 (stereo not drawn) | 2.64 |
| O=C(NCCCn1ccnc1)c1sc2cccc(F)c2c1Cl | -37.3 |
| CC(=O)N1CCN(c2ccc([N+](=O)[O-])c(NCc3cccnc3)c2)CC1 | -22.3 |
| CC(NC(=O)c1ccccc1F)C1CC1 (stereo not drawn) | 3.09 |
| CCOc1ccccc1Oc1c(C)oc2cc(OC(=O)c3ccco3)ccc2c1=O | -7.03 |
| O=C(CN1C(=O)NC2(CCCC2)C1=O)Nc1ccc(OC(F)(F)F)cc1 | -6.46 |
| CCN(CCCNC(=O)Cn1ncc2c([nH]c3ccccc32)c1=O)Cc1ccccc1 | -67 |
| NC(=O)/C=C/C(=O)Nc1ccc(Cl)cc1 | 6.1 |
| Cc1ccc(S(=O)(=O)Nc2ccccc2C(=O)Nc2sccc2C(=O)NN(C)C)cc1 | -40.2 |
| COCC(=O)Nc1ccccc1C#N | 10.6 |
| CN(CC1CCCN(CCc2ccc(F)cc2)C1)C(=O)CCC(N)=O (stereo not drawn) | -23.9 |
| CCOC(=O)N1CCN(c2nc(-c3cccs3)nc3ccccc23)CC1 | -1.74 |
| COc1ccc(OCc2nnc(SCC(=O)NC3CCCCC3)o2)cc1 | -5.19 |
| C1CN(c2nc3nonc3nc2N2CCOCC2)CCO1 | 20.2 |
| CC(NC(=O)COC(=O)CNC(=O)c1ccccc1Cl)C1CC2CCC1C2 (stereo not drawn) | -7.14 |
| Cc1cccc(Nc2nc(NCC3CCCO3)nc(N)c2[N+](=O)[O-])c1 (stereo not drawn) | -16 |
| Cc1ccc(NC(=O)N2CCC(C(=O)NCc3ccccc3)CC2)cc1 | -22 |
| CC(Oc1ccc(C#N)cc1)C(=O)c1ccc(F)c(F)c1 (stereo not drawn) | -51.6 |

| SMILES | hERG current change (%, negative = inhibition) at 10uM [%] |
| --- | --- |
| NC(=O)c1c(NC(=O)c2ccco2)sc2c1CCC2 | -3.83 |
| COc1ccc(-n2nc3c(c2NC(=O)C(C)C)CSC3)cc1 | 14.9 |
| Cc1ccc(NC(=S)N(CCN2CCOCC2)Cc2cc3cc4c(cc3[nH]c2=O)OCO4)cc1 | -21 |
| COc1ccccc1CNC(=O)COc1cc2c(c3oc(=O)cc(C)c13)CCC(C)(C)O2 | -18.6 |
| CCCOc1ccc(NC(=O)CC2C(=O)Nc3ccccc3N2CC(=O)N2CCCC2)cc1 (stereo not drawn) | 4.48 |
| COc1ccc(C2CC(c3ccc4ccccc4c3OC(C)=O)=NN2C(=O)/C=C/c2ccccc2)cc1 (stereo not drawn) | -0.389 |
| COc1ccc(N(C(C)C(=O)NN=C2CCCC2)S(C)(=O)=O)cc1 (stereo not drawn) | 21.6 |
| CCCC1CCc2c(c3ccccc3[nH]c2=O)O1 (stereo not drawn) | 12.4 |
| C/C(=N/NC(=O)CNC(=O)c1cccnc1)c1ccccc1 | -2.54 |
| CC(=O)NNc1ncnc2c1cnn2-c1ccc(C)c(Cl)c1 | 3.22 |
| Cc1ccc(S(=O)(=O)n2c3ccc(F)cc3c3nc(C)sc32)cc1 | 4.98 |
| O=C(CNC(=O)C1COc2ccccc2O1)N/N=C\c1ccc(Br)cc1 (stereo not drawn) | -20.1 |
| COCCn1c(N)c(C#N)c2nc3ccccc3nc21 | -14 |
| O=C(CSc1nnc(Cn2c(=O)sc3ccccc32)n1-c1ccccc1)N1CCCC1 | -6.63 |
| Cc1ccc(C(=O)NCC(=O)N/N=C/c2cccs2)cc1C | 5.99 |
| COc1ccc(NC2CCCN(C(=O)CN3CCOC3=O)C2)cc1 (stereo not drawn) | 16.6 |
| S=C(NCCc1ccc(Cl)cc1)NC1CC1 | 11.2 |
| CCN(CC(=O)Nc1c(F)cccc1F)C(=O)CNC(=O)c1cccc(C)c1 | 16.1 |
| O=C(CCc1nnc2ccc(N3CCCCC3)nn12)NCc1ccco1 | 4.07 |
| CC(C)NC(=S)N/N=C/c1ccccc1[N+](=O)[O-] | 5.35 |
| COCC(=O)N(Cc1cc2cc(OC)ccc2[nH]c1=O)c1ccccc1 | 0.711 |
